Among the data in the supplement of paper PMC10681739 are RUNX1 binding intensity values, retold here.

In all, about 4,000 sequences were measured (“arbitrary fluorescence units”: median about 830, highest 2% from about 6,500 on). Most of the strongest results are missing from this list.
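Further: Full-length recombinant human RUNX1 bound to double-stranded DNA microarray spots, detected with an Alexa488-labelled secondary antibody after the anti-RUNX1 primary, read as scanned spot fluorescence.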

Sequence of UniProt Q01196 (Q01196 whole entry): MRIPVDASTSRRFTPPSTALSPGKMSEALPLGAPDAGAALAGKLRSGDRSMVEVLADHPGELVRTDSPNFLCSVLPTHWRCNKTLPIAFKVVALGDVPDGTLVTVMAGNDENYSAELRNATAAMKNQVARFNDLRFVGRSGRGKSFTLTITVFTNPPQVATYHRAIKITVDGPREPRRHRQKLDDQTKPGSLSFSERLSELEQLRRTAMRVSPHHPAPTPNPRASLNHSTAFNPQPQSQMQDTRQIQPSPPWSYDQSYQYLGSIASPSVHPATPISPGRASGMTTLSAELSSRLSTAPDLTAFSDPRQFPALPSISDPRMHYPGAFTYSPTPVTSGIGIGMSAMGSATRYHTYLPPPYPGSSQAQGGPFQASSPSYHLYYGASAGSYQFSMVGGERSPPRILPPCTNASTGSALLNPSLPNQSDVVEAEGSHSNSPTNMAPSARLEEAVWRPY

The target of the assay is RUNX1 (UniProt Q01196). As to the kind of experiment: RUNX1 binding intensity (PBM fluorescence), RUNX1 alone (arbitrary fluorescence units); higher = stronger binding. Conditions: RUNX1 concentration 2 nM; ETS1 concentration 0 nM. Here is the method:
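gcPBM on 36-bp genomic-derived probes (partner site mutated) containing one RUNX1 site and no ETS1 site. Recombinant human RUNX1 (2 nM) was incubated alone or with ETS1 (25 nM) and detected by anti-RUNX1 antibody fluorescence. Values are medians over 4 replicate spots (not normalised). The probes sit in constant array flanks that are not printed.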
In turn, GGGGCAGCAAGTGGAGGTTTGAAGTGGTTTAGAGTA yielded an RUNX1 binding intensity of 782.

The sequence CAGCGGTCATCATGGTGAAGGAGCAGTTCAGGGAGA returned an RUNX1 binding intensity of 802. Regarding GAGTCACCAACCACCGCCATGGGCCGTAAGCCACCG, the RUNX1 binding intensity was determined as 838. As to GACAAAGCTGCGGCAGGAGGGACGTTTCTGCACTGG, the RUNX1 binding intensity worked out at 794. Sequence AACCCCTTGCACCGCGGACACAGCTTCTTCTTCCCC came in with an RUNX1 binding intensity of 1080. Consider GCCAGGCGGCCGCAGATCCCCAGAACATACGGGAGC, for which the RUNX1 binding intensity came out at 935. TCACCTTCTGCCACAACTGTTAAGTTTTCTGAGGCC: the RUNX1 binding intensity was found to be 1050.

CTCCTGTGGGATCTGACTTCAAGGAGACCACAGATG yielded an RUNX1 binding intensity of 832.

As to TGGCAACCACACATCCACATCCACTGCCTGCTGAAC, the RUNX1 binding intensity was found to be 1270. With CCTGGGGCCACAAAACTGCCTCCTGCCTGAGGCCAG, the RUNX1 binding intensity is 856. Regarding GGCGCGGTCGGGGTTAACCCGGAGCTGAAGGATCCC, the RUNX1 binding intensity is 859. For CGTGAGCCACCGCGCCCGGCCTCGCCCTTGCTGAAG, the RUNX1 binding intensity was determined as 965. ACGTACGGGATCTGGGAGGTTTGTTTTGACCACACC yielded an RUNX1 binding intensity of 797. In the case of AGCGATTGCCTTCTCGGGCCCCTGGGCTGCGGCAGT, the RUNX1 binding intensity was 644. Take GCTGCGGGCGCCGGCAATCGAGTGGCTCCCTGGCCA: the RUNX1 binding intensity was 760. For the sequence AGCCTCAGGGAACTAGCGTCCCCTAGTGGTAAGAAA, the RUNX1 binding intensity is 773. GGGGAGGGACCGCAGGGAGGCGAAAGTCCTTGTTTT had an RUNX1 binding intensity of 920. The result for GAGTCCTCGCCGCAAACCCGAGGAGCAGGGTGTGGA reads 1140; that for CCAGCAAAGGGAGCTTGGTCAACCACAGCAGCCTGT, 839. Take TAGCAGGGAGCCGATTCGCCCTATATGCAACCACTT: the RUNX1 binding intensity was found to be 780. In the case of CTAGCAACCGCGGGAAGGGGGCGTGGCCGTAAGCCT, the RUNX1 binding intensity was found to be 804. On to TCTTTAGTGTGGTTTTGGTAGGATGGAAAGTAGTTT, for which the RUNX1 binding intensity was found to be 1490.

In the case of GACCTGGGCAGCAAGAGCGGCATGTGGGGCCCCCTG, the RUNX1 binding intensity came to 806.

On to CTGGTTTCAATTCCGGGTGCGGCTTCTGTCATAAAG, for which the RUNX1 binding intensity is 886. As for GGCATTCACTTTCGGTCTGGGGCCTGCGGCGGCGGC, the figure is 824; as for TGTTCGGTGGTTGTCTCGGGGGGTTGCAGCAAGATC, 1010.

For the sequence ATTGTAAATTGCCTTTAAACGTCCCCACCGCGCTCC, the RUNX1 binding intensity worked out at 967. In turn, AACTAGTTCGTTCCTTATGCGGCCCAGGGCTCCACC returned an RUNX1 binding intensity of 893. CTTGGCTGTGGTTCTCTGGTAGGAGGTGAGAGAGGT yielded an RUNX1 binding intensity of 968. The sequence GGAGGCAGGGCCGCAACCCCGGCAAGCTGGGGTCGG yielded an RUNX1 binding intensity of 723. In the case of GAGTGGCTGTGGTCTCGGGCGGCTGGGGAGAGGGGA, the RUNX1 binding intensity is 956. As for AACAACAAAAATCCCAGGAACCACAGTGGGACAGGA, the RUNX1 binding intensity turned out to be 772. Consider GCTCCTCCCGGCTATAAAGCCCCAAACCACGCCACT, for which the RUNX1 binding intensity amounted to 980.

Sequence AAGCCCTAGAGGAGATTAGTACGTAACCACCTTCTG gave an RUNX1 binding intensity of 709. Take AAGTTAGGTCTGAAGACCTGTGGGCAGCTTGAGCGC: the RUNX1 binding intensity came out at 695. AATCAGATTGTGCCCACAAGGCGGAGATGTACGACA registered an RUNX1 binding intensity of 846. For AAAAACAAGGAGGCCTGAAGGGAAGGCGGTTGAAAA, the RUNX1 binding intensity came out at 764. Sequence AACCAAGCAACCACTCGAAACTCCCGAGTACACCCT returned an RUNX1 binding intensity of 954. AAATTGAGGTTTCTGTTAGTGAAGAGGAGGAGGTCA displayed an RUNX1 binding intensity of 981.

GGACTGCGTTGCCGGACACTGCGGGTGCCGGTAGCC: the RUNX1 binding intensity stood at 683. Sequence AGTCTTACCACCTCTGAGGATGACTGAGCGCAAGAG registered an RUNX1 binding intensity of 775. Turning to GCTGCGGCTGCCGCCATCATGGTGCGGCAGCTTAAG, the RUNX1 binding intensity was 749. Sequence GACAGAACCTGTGGTCTGCAGGGTTTCATGTTAAAC came in with an RUNX1 binding intensity of 882. Turning to TACGGGAACGTCCTTTTCTTGTGGTGTGGCCGGGTC, the RUNX1 binding intensity is 788. The result for TCCCTCCACCGCTCAGACCCACTGCCTGTCTGCTTC reads 1420. Consider CTTGCGGCCTCGCGGCATGGGCAGTCTCCGCCGCCA, for which the RUNX1 binding intensity is 755.

The sequence CTGTGTATTTGTGGGATGCTTGAGGAGATCAAAAAG showed an RUNX1 binding intensity of 766. The sequence TTGTCACGCCCGGCACGCCGCGAACCGCAAGGAACC gave an RUNX1 binding intensity of 1270. For AGGCCGCTTGCTCCCACATGAAACCGCAGGCTTCGG, the RUNX1 binding intensity was 3320. For the sequence TTACCCCGGCTGAACGGAGGCCTGCGGTCGCGGCGG, the RUNX1 binding intensity worked out at 1070.

In the case of CTTGTGCCTACATGCTGTAGCTGTGGTTTAGGGACG, the RUNX1 binding intensity is 811.

On to ACCTCCGTCCGTCCCGCGGGACCAGGGTGCGGGTCC, for which the RUNX1 binding intensity is 822.

The sequence ACTGTGGGCGCAGGCGCGGCTGCCGATTCCTCTTTA gave an RUNX1 binding intensity of 786. Regarding CATTGAATGTGGTAGGAGGTGGGGAGCAAGCCACTG, the RUNX1 binding intensity was determined as 824. Regarding GACTTGGGGGAACTGGCTTGGTTTGCGTGGTTTCTC, the RUNX1 binding intensity was 1080. AAAACCTTTAAACCACAGGGGACAGGCAATGAGTGC: the RUNX1 binding intensity is 1180. TGAAGGAGCGCAAGGGTTGCTTGCAGACCGCACGGT returned an RUNX1 binding intensity of 649. In the case of AGTTGGTTCCTTCAGGTGGGTTTGTGGGTTTGGGGT, the RUNX1 binding intensity turned out to be 790.

On to GAGACGTGTGGTAATTACTGTTTTCCAGGCAGTGGC, for which the RUNX1 binding intensity is 752.

Consider GGTCACAGCCTTTCCCTTCTGTGTCTCAGCCGCAGT, for which the RUNX1 binding intensity was 948. For the sequence GGACAGCAAGTGCCTGCAGCTTCTACCACAAACCTA, the RUNX1 binding intensity is 820. AAGAGGCAGTCCCAAATTGCTTTTTAACCACCAACA: the RUNX1 binding intensity was 766.
